From PMC2644682
These are yes or no findings as the source states them, for the method shown. Binding seen in cells or lysates may run through a third protein. Some binding calls cover weakened binding; strength is not graded here. For part of these data: Where a sequence is shown, tags or fusion partners need not be part of it. Values belong to the molecule of their own block, whether it stands above or below them.

Chains of the proteins cited; added tags and fusions are not shown. Residues count along the entry.
UniProt P15941, residues 24-1255: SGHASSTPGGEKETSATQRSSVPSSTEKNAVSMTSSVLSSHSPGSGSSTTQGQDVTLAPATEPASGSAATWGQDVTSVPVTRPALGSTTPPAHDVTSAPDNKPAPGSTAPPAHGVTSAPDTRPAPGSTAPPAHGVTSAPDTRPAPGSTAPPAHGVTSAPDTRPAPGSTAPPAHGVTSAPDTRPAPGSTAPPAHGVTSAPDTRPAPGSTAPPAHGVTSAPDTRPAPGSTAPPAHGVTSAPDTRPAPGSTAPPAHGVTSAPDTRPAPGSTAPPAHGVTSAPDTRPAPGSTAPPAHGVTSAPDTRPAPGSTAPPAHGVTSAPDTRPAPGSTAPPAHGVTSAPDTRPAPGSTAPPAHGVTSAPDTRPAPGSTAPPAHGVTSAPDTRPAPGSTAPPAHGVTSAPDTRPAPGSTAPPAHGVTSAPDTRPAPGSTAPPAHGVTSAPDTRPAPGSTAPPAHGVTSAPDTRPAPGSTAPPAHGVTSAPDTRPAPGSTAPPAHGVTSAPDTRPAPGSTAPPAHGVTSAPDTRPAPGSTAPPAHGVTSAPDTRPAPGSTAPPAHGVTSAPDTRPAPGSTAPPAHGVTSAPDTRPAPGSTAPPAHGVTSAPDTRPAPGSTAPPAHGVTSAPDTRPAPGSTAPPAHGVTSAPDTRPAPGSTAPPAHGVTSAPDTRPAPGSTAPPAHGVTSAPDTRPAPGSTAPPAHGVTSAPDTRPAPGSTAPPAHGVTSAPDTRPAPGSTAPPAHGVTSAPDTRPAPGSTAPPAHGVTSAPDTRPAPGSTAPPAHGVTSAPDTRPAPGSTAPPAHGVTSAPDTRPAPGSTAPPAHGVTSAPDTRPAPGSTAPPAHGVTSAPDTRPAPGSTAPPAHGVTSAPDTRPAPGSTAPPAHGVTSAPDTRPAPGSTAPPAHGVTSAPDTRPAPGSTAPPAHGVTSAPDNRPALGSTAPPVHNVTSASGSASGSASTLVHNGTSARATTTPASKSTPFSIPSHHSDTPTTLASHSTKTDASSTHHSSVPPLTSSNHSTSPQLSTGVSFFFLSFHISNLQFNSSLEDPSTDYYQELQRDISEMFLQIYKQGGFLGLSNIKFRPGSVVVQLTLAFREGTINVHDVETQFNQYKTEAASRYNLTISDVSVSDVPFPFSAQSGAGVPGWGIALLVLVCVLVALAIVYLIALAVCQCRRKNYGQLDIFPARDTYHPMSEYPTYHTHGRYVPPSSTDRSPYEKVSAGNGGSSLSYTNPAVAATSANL
UniProt Q969L2: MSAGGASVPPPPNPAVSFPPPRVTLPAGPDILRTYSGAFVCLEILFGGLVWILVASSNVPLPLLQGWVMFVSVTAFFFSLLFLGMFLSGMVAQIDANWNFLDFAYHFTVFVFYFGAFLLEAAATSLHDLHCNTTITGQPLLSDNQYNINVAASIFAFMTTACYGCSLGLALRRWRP

Tests used:
[1] = molecular target: MUC1, endogenous in breast cell lines (human (endogenous in MCF-10A and MCF-7)) (UniProt P15941); test: co-IP; total lysate of MCF-10A/Myc-MAL2 cells; BC2 with protein G-agarose, c-Myc or rabbit MAL2 antisera with protein A-Sepharose, 4°C, 16 h; lysis buffer 10 mM Tris with 1 mg/ml saponin for MAL2 and D52, SDS lysis buffer for MAL2 and MUC1; Western blot
[2] = molecular target: Myc-tagged MAL2 (pCR3.1/Myc-MAL2) in MCF-10A/Myc-MAL2 cells (human) (UniProt Q969L2); test: co-IP; pooled Triton X-100-soluble sucrose gradient fractions (5–8 and 9–12) of MCF-10A/Myc-MAL2 cells extracted with 1% Triton X-100 at 4°C; MAL2 antisera, blot with MUC1 monoclonal antibody
[3] = molecular target: Myc-tagged MAL2 (pCR3.1/Myc-MAL2) in MCF-10A/Myc-MAL2 cells (human) (UniProt Q969L2); test: co-IP; total lysate of MCF-10A/Myc-MAL2 cells; BC2 with protein G-agarose, c-Myc or rabbit MAL2 antisera with protein A-Sepharose, 4°C, 16 h; lysis buffer 10 mM Tris with 1 mg/ml saponin for MAL2 and D52, SDS lysis buffer for MAL2 and MUC1; Western blot
[4] = molecular target: Myc-tagged MAL2 (pCR3.1/Myc-MAL2) in MCF-10A/Myc-MAL2 cells (human) (UniProt Q969L2); test: condition: only pooled Triton X-100-insoluble fractions 1–4 (which include lipid rafts); co-IP; pooled sucrose gradient fractions 1–4 (Triton X-100-insoluble, include lipid rafts) of MCF-10A/Myc-MAL2 cells extracted with 1% Triton X-100 at 4°C; MAL2 antisera, blot with MUC1 monoclonal antibody
[5] = molecular target: MAL2, endogenous in MCF-7 and MDA-MB-435 cells (human (endogenous in MCF-7 and MDA-MB-435)) (UniProt Q969L2); test: co-IP; MCF-7 cells and MUC1-transfected MDA-MB-435 cells; data not shown

- binding [1]: binds
Molecule: Myc-tagged MAL2 (pCR3.1/Myc-MAL2) in MCF-10A/Myc-MAL2 cells (from UniProt Q969L2 1-176)

- binding [2]: binds
- binding [3]: binds
- binding [4]: no binding
- binding [5]: binds
Molecule: MUC1, endogenous in breast cell lines (from UniProt P15941 24-1255)

- binding [3]: binds
B1: D52, endogenous in MCF-10A/Myc-MAL2 cells (protein, UniProt P55327 1-224)
chain: MDCREMDLYEDYQSPFDFDAGVNKSYLYLSPSGNSSPPGSPTLQKFGLLRTDPVPEEGEDVAATISATETLSEEEQEELRRELAKVEEEIQTLSQVLAAKEKHLAEIKRKLGINSLQELKQNIAKGWQDVTATSAYKKTSETLSQAGQKASAAFSSVGSVITKKLEDVKNSPTFKSFEEKVENLKSKVGGTKPAGGDFGEVLNSAANASATTTEPLPEKTQESL
